US20240262905A1 (PANDION OPERATIONS, published 2024)

Target: T1, Insulin
T1 construct: Plate coat in the polyreactivity ELISA
Assay: ELISA, plate coated with insulin 5 ug/mL, test article at 100 nM, anti-human Fc-HRP detection

B1: IL2DSGAB2 (other)
heavy: QVQLVQSGAEVRKPGASVRVSCKASGYTLTTYDINWVRQATGQGLEWMGWMNPTSGNTAYAQKFQGRVTMTRNTSISTAYMELSSLRSEDTAVYYCARGLFFGVVTKPNYYYYAMDVWGQGTTVTVSSASTKGPSVFPLAPSSKSTSGGTAALGCLVKDYFPEPVTVSWNSGALTSGVHTFPAVLQSSGLYSLSSVVTVPSSSLGTQTYICNVNHKPSNTKVDKKVEPKSCDKTHTCPPCPAPEAAGAPSVFLFPPKPKDTLMISRTPEVTCVVVDVSHEDPEVKFNWYVDGVEVHNAKTKPREEQYNSTYRVVSVLTVLHQDWLNGKEYKCKVSNKALPAPIEKTISKAKGQPREPQVYTLPPSREEMTKNQVSLTCLVKGFYPSDIAVEWESNGQPENNYKTTPPVLDSDGSFFLYSKLTVDKSRWQQGNVFSCSVMHEALHNHYTQKSLSLSPGGGGGSAPTSSSTKKTQLQLEHLLLDLQMILNGINNYKNPKLTRMLTFKFYMPKKATELKHLQCLEEELKPLEEALNLAPSKNFHLRPRDLISDINVIVLELKGSETTFMCEYADETATIVEFINRWITFSQSIISTLT
light: [about 200 residues omitted]
notes: SD2 anti-desmoglein human IgG1 with the IL-2 mutein fused to the C-terminus of the heavy chain; copies: 2 + 2
With B1 the Insulin polyreactivity score was 6.3.
